Measured values published in PubChem BioAssay AID652104 (National Center for Advancing Translational Sciences (NCATS), 2013).
Out of some 410,000 compounds screened, about 7,200 (1.8%) were called active. Inconclusive means that the source gave no clear call. Such entries were picked first, then a sample of the others. The call rests on the fitted dose curve; in most records, active means well fitted activation curve with a large enough effect; inconclusive means small, poorly fitted or top-dose-only effect, or another doubt; inactive means no such curve, though single readings can be large or run the other way. Potencies of inconclusive entries are left out as doubtful fits.

test: qHTS of TDP-43 Inhibitors; conditions: TDP-43 expressing yeast growth rescue, BacTiter-Glo, 24 h; growth rescue (activation): at 46.1 µM (top of the series) unless noted; further: nearly all actives have a fitted effect of over 50% in size; on growth rescue (activation): % of control where 0% means no effect
Method in brief: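 Cell-based yeast growth screen: TDP-43 expression induced in galactose, inoculum OD600=0.02 after raffinose pregrowth to mid-log. Read-out BacTiter-Glo luminescence at 24 hr, 30 deg C; inhibition of toxicity seen as signal increase.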
Potency means the concentration at half of the fitted maximal effect; tags describe the fitted curve by direction and shape.

| SMILES | Potency | growth rescue (activation) |
| --- | --- | --- |
| COc1ccccc1NC(=O)COc1ccc2ccccc2c1 | inconclusive [activator, partial curve] | – |
| O=S(=O)(c1cccc(-c2nnc(SCc3nc4ccccc4s3)o2)c1)N1CCOCC1 | inconclusive [activator, full curve, poor fit] | – |
| Cc1ccc(C23CC4CC(CC(C(=O)NC(C)C)(C4)C2)C3)cc1 | inconclusive [activator, partial curve] | – |
| Cc1ccc(NC(=S)Nc2cccnc2)c(S(=O)(=O)N2CCCCC2)c1 | – | inactive: 15.1% |
| COCCCNC(=O)c1ccc2c(c1)N=C(C)c1c(C)ccc(C)c1S2 | inconclusive [activator, single point] | – |
| Cc1ccc(C)c(S(=O)(=O)N2CCN(c3ncnc4sccc34)CC2)c1 | inconclusive [activator, single point] | – |
| Cc1cccc(N2CCN(C(=O)c3cccc(N4CCCC4=O)c3)CC2)c1C | active: 12.6 µM | – |
| O=C(CN1C(=O)C(c2ccccc2)Oc2cccnc21)NCc1ccccc1F (stereo not given) | inconclusive [activator, single point] | – |
| CC1(C)C(=O)N(OCc2ccccc2)C(C)(C)C(=O)N1OCc1ccccc1 | inconclusive [activator, partial curve, poor fit] | – |
| CC1CCCN(S(=O)(=O)c2cc3c(cc2Cl)NC(=O)CO3)C1 (stereo not given) | inconclusive [activator, partial curve, poor fit] | – |
| CC(=O)N(Cc1ccc(F)cc1)C1=C(NCc2ccccc2)C(=O)c2ccccc2C1=O | inconclusive [activator, single point] | – |
| CC(C)C1C(=O)N(Cc2cn(Cc3ccco3)nn2)CCS(=O)(=O)N1Cc1ccc(-c2ccc(Cl)c(Cl)c2)cc1 (stereo not given) | – | inactive: 27.7% |
| O=C(CCC(=O)N1CC2CCCN2c2ccccc21)NCc1ccccc1Cl (stereo not given) | inconclusive [activator, single point] | – |
| O=C1c2cccc3c([N+](=O)[O-])ccc(c23)C(=O)N1Cc1cccnc1 | inconclusive [activator, single point] | – |
| COc1cc2c(cc1OC)C(c1ccccc1F)OC(=O)C2 (stereo not given) | inconclusive [activator, partial curve] | – |
| Cc1ccc2c(c1)c1c(c(=O)n(-c3ccccc3C)c(=O)n1CC(=O)NCCC1=CCCCC1)n2C | inconclusive [activator, full curve, poor fit] | – |
| COC(=O)c1ccc(CNC(=O)COC(=O)/C=C/c2ccc(O)c(OC)c2)cc1 | – | inactive: 19.3% |
| O=C(c1ccc2nc(Cc3cccc(Cl)c3)oc2c1)N1CCOCC1 | – | inactive: 29.8% |
| O=C1COc2cc(S(=O)(=O)CCC(=O)N3CCN(c4cccc(Cl)c4)CC3)c(Cl)cc2N1 | – | inactive: 4.2% |
| COCCn1c(SCC(=O)Nc2ccc(NC(=O)c3ccco3)c(OC)c2)nc2ccccc2c1=O | – | inactive: -3.08% |
| O=C1[C@H]2[C@@H](c3ccc(C(F)(F)F)cc3)N[C@]3(CCCN(Cc4ccc(F)cc4)C3=O)[C@H]2C(=O)N1Cc1ccccc1 | inconclusive [activator, partial curve] | – |
| C=CCN(Cc1nc(-c2ccccc2)no1)C(=O)c1ccoc1C | inconclusive [activator, partial curve] | – |

| SMILES | Potency | growth rescue (activation) |
| --- | --- | --- |
| CC(C)(C)c1ccc(S(=O)(=O)NCc2nc3cccnc3n2Cc2ccccc2Cl)cc1 | inconclusive [activator, partial curve] | – |
| CC(C)n1ncc2c(C(=O)NCC(=O)Nc3ccccc3Br)cc(C3CC3)nc21 | inconclusive [activator, single point] | – |
| CC12CCC(C(=O)N(CSC(=S)N/N=C\c3ccccc3O)C1=O)C2(C)C (stereo not given) | active: 25.1 µM | – |
| Cc1cccc(Nc2nc(N)c([N+](=O)[O-])c(N3CC(C)CC(C)C3)n2)c1 (stereo not given) | – | inactive: 17% |
| COc1ccccc1C(=O)N1CCN(c2nc3cc(C)c(C)cc3cc2C#N)CC1 | inconclusive [activator, single point] | – |
| O=C(CCc1ccccc1)n1nc(-c2ccco2)nc1SCc1ccccc1 | inconclusive [activator, partial curve] | – |
| CC(=O)c1ccc(N2CCN(S(=O)(=O)c3cccc4nonc34)CC2)cc1 | inconclusive [activator, partial curve] | – |
| CCc1c(C)nc2ncnn2c1Nc1ccc(C)c(C)c1 | inconclusive [activator, partial curve] | – |
| CC(C)c1cc(C(C)C)c(S(=O)(=O)NC(c2ccccn2)C23CC2C3)c(C(C)C)c1 (stereo not given) | active: 22.4 µM | – |
| Cc1ccc(S(=O)(=O)N(C(=O)c2ccncc2)c2ccc(OC(=O)c3ccncc3)cc2)c(C)c1 | active: 7.08 µM | – |
| COc1cccc(C(=O)OCCN2C(=O)c3ccccc3C2=O)c1OC | inconclusive [activator, partial curve] | – |
| CCCCn1cnc2c(SCc3ccccc3F)nc(N)nc21 | active: 17.8 µM | – |
| CC(C)c1cc(-c2nc(-c3ccccc3)no2)n[nH]1 | – | inactive: -4.26% |
| O=S(=O)(Nc1nc2ccccc2nc1NCc1ccco1)c1ccc(Cl)cc1 | inconclusive [activator, single point] | – |
| CCOc1ccc(Nc2ccc(C(=O)O)cc2[N+](=O)[O-])cc1 | inconclusive [activator, single point] | – |
| Cc1ccc(C(=O)N2CCN(c3ccc([N+](=O)[O-])c(N4CCOCC4)c3)CC2)cc1 | inconclusive [activator, single point] | – |
| Cc1cc(NC(=O)CSCc2nc(-c3cccc(F)c3)oc2C)no1 | inconclusive [activator, partial curve] | – |
| CCOc1cc(/C=N/NC(=O)CN2CCCCC2)ccc1OCc1ccccc1 | inconclusive [activator, single point] | – |
| Cc1nc(N2CCCC2)c2c(C(=O)N3CCN(c4cccc(C)c4C)CC3)c(C)oc2n1 | inconclusive [activator, single point] | – |
| O=C(Nc1ccc2ncccc2c1)c1ccccc1Cl | – | inactive: 0.785% |
| COc1ccc(S(=O)(=O)N2CCC[C@H]2C(=O)N2CCC[C@H]2C(=O)NCc2ccccn2)cc1C | inconclusive [activator, partial curve] | – |
| CC(C)c1ccccc1NC(=O)CN1C(=O)c2cccc3cccc1c23 | – | inactive: 25% |

| SMILES | Potency | growth rescue (activation) |
| --- | --- | --- |
| CCc1ccc(CNC(=O)CCCN2C(=O)c3cccnc3Oc3ccc(Cl)cc32)cc1 | inconclusive [activator, partial curve] | – |
| Cc1ccccc1-c1nnc(C2CCN(S(=O)(=O)c3ccc(Cl)cc3)CC2)o1 | – | inactive: 13.3% [at 9.22 µM] |
| CCCCSc1nc(NCc2ccco2)c2c3c(sc2n1)COC(C)(C)C3 | inconclusive [activator, single point] | – |
| CCc1ccc2oc(-c3ccc(NC(=O)c4cc(OC)c(OC)c(OC)c4)cc3)nc2c1 | inconclusive [activator, full curve] | – |
| O=C(Nc1cccc2cccnc12)c1ccc(F)cc1 | inconclusive [activator, single point] | – |
| O=C(Cc1ccccc1)N(Cc1cccnc1)c1nc2ccc(F)cc2s1 | inconclusive [activator, full curve, poor fit] | – |
| Cc1ccc(CNC(=O)CCC(=O)N2CC(C)Oc3ccc(Cl)cc32)cc1 (stereo not given) | inconclusive [activator, single point] | – |
| Cc1cc(C(=O)N[C@H](c2ccccc2)[C@@]2(C)C[C@@H]2[C@@H](C)C(=O)Nc2ccc3ccccc3c2)n(C)n1 | inconclusive [activator, partial curve, poor fit] | – |
| COC(=O)C(C)Sc1nnc2cc(C)c3cc(C)cc(C)c3n12 (stereo not given) | inconclusive [activator, full curve, poor fit] | – |
| COc1cc(-c2cc(OC)c3c(C)oc(C)c3c(=O)c2)ccc1OC(=O)c1ccccc1C | active: 20 µM | – |
| O=C(CN1C(=O)C(c2ccc(F)cc2)=NC12CCCCCC2)Nc1ccc(F)c(Cl)c1 | – | inactive: -8.97% |
| COc1ccccc1NC(=O)Cn1c(=O)n(Cc2ccco2)c(=O)c2oc3ccccc3c21 | – | inactive: 6.96% |
| COc1ccc(NC(=O)c2sccc2-n2cccc2)cc1 | active: 12.6 µM | – |
| Cc1c(-c2ccc(F)cc2)nc(N)c(C#N)c1-c1cccs1 | inconclusive [activator, full curve] | – |
| COc1ccc(CCNC(=O)Cc2c(Cl)cccc2Cl)cc1 | inconclusive [activator, partial curve, poor fit] | – |
| COc1ccc(C2=NN(C(C)=O)C(c3ccccc3)C2)cc1 (stereo not given) | active: 14.1 µM | – |
| CC1(C)CN(Cc2ccccc2)C(=O)[C@H]1CC(=O)Nc1ccc(Br)cc1 | inconclusive [activator, full curve] | – |
| O=C(Cn1cnc2c(nc3n2CCCCC3)c1=O)Nc1ccc(F)cc1 | inconclusive [activator, full curve, poor fit] | – |
| CCc1ccc2oc(-c3ccc(OC)cc3)cc(=Nc3c(C)n(C)n(-c4ccccc4)c3=O)c2c1 | inconclusive [activator, partial curve] | – |
| O=C(OCc1ccc(Cl)cc1)c1cccnc1Cl | inconclusive [activator, single point] | – |
| O=C(c1ccc([N+](=O)[O-])cc1[N+](=O)[O-])n1cnc2ccccc21 | inconclusive [activator, partial curve] | – |
